Data on one molecule can be found in article PMC10079162 (Nature Communications, 2023).

This assay deals with T1, human serum albumin (Homo sapiens, UniProt P02768).
T1 construct: also called HSA
In words: BLI; format and conditions not told in the main text (methods are in the Supplementary Materials). The conditions noted are these: both partners purified. Background: BLI is a label-free optical method that tracks binding on a fibre tip over time.

B1: Nb.b201 A31D H53P T55G (VHH)
VHH: QVQLQESGGGLVQAGGSLRLSCAASGYISDDYYMGWYRQAPGKEREFVATITPGGNTYYADSVKGRFTISRDNAKNTVYLQMNSLKPEDTAVYYCAVLETRSYSFRYWGQGTQVTVSS
notes: also called triple mutant; source: HEK293 cells; obtained at high purity
In the case of B1, the binding result was “binds”.
